# Inconclusive results, whose numbers are uncertain, are shown with a selection of clear calls. For some of these results: Potencies of inconclusive entries are doubtful fits and often do not repeat. Activity calls are given as the source filed them. The call rests on the fitted dose curve; in most records, active means well fitted curve in the direction sought with a large enough effect; inconclusive means small, poorly fitted or top-dose-only effect, or another doubt; inactive means no such curve, though single readings can be large; an effect the other way counts as inactive or inconclusive.
# What was measured:
# [1] = P-glycoprotein substrates identified in KB-8-5-11 adenocarcinoma cell line, qHTS therapeutic library screen (AID 1346987); details: activity change, negative = cytotoxicity: at 44.5 µM (top of the series); further: nearly all actives have a fitted effect of over 65% in size; further: potency means the concentration at half of the fitted maximal effect; on activity change, negative = cytotoxicity: on the % scale 0 is the no-effect control and ±100 the full control effect
# Procedure, shortened: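 KB-8-5-11, a colchicine-selected P-gp-overexpressing KB-3-1 subline, was grown without colchicine for the assay. Cells were seeded at 500 cells/well, dosed in concentration-response and incubated 72 h at 37 degree C, 5% CO2. Viability was read by CellTiter-Glo luminescence.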
# [2] = Primary qHTS for inhibitors of nuclear receptor binding SET domain protein 2 (NSD2) in an isogenic RCH-ACV NSD2 p.E1099K mutant (9B) (AID 1645876); details: activity change, negative = viability loss: at 44.9 µM (top of the series) unless noted; further: nearly all actives have a fitted effect of over 70% in size; further: potency means the concentration at half of the fitted maximal effect; on activity change, negative = viability loss: on the % scale 0 is the no-effect control and ±100 the full control effect
# [3] = Primary qHTS for inhibitors of nuclear receptor binding SET domain protein 2 (NSD2) in an RCH-ACV wild type WT cells (2C) (AID 1645877); details: activity change, negative = cell killing: at 44.9 µM (top of the series) unless noted; further: nearly all actives have a fitted effect of over 70% in size; further: potency means the concentration at half of the fitted maximal effect; on activity change, negative = cell killing: on the % scale 0 is the no-effect control and ±100 the full control effect
# [4] = Primary redox qHTS assay for identification of artifact compounds. (AID 1845223); further: potency means the concentration at half of the fitted maximal effect
# Procedure, shortened: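 Amplex Red (25 uM) and HRP (250 mU/mL) in HBSS, with compounds for 15 min, then 250 uM DTT for 30 min, room temperature, dark. Fluorescence 525/598 nm read; normalized to DMSO and 10 uM DA3003; Hill fit.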
# [5] = target: Luciferin 4-monooxygenase (Photinus pyralis) (UniProt P08659); experiment: Primary firefly luciferase (FLuc) qHTS assay for identification of artifact compounds. (AID 1845220); further: potency means the concentration at half of the fitted maximal effect; nearly all actives have a fitted effect of over 60% in size
# Procedure, shortened: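 In this counter-screen for luciferase artifacts, test compounds met substrate (10 uM each luciferin and ATP) before 10 nM enzyme started the reaction. Light output was measured 5 min later.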
# [6] = target: Tyrosine-protein kinase Yes (Homo sapiens) (UniProt P07947); experiment: qHTS for small molecule inhibitors of Yes1 kinase: Primary Screen (AID 686947); details: Yes1 kinase biochemical qHTS inhibition; further: potency means the concentration at half of the fitted maximal effect; nearly all actives have a fitted effect of over 60% in size
# Chain of UniProt P07947 (P07947 whole entry, looked up): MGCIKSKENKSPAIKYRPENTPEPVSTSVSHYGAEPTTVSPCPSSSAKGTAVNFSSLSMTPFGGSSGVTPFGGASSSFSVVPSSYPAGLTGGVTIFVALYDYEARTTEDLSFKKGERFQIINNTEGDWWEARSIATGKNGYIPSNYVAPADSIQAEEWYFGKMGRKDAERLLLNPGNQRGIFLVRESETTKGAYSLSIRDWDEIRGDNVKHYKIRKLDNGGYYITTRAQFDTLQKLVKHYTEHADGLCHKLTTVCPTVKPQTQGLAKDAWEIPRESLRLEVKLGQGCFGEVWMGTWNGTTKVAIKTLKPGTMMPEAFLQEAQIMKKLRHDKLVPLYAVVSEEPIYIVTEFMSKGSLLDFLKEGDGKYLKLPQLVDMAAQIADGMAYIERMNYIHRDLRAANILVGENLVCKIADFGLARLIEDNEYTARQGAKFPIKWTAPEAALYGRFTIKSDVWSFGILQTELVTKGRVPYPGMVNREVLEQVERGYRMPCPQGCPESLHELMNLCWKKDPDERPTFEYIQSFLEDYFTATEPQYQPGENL
# Procedure, shortened: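 Yes1 (4 nM) preincubated 20 min with compound, then 60 min room-temperature reaction with 0.1 mM ATP and 0.3 mg/mL poly(E4Y) in pH 7.5 Tris, 10 mM MgCl2. ADP measured by ADP-Glo luminescence, normalised to enzyme/no-enzyme controls.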
# [7] = target: Glutathione peroxidase 1 (Homo sapiens) (UniProt P07203); experiment: Primary qHTS Assay for Inhibitors of Recombinant Selenoprotein Glutathione Peroxidase 1 (GPX1) (AID 1845191); further: nearly all actives have a fitted effect of over 65% in size
# Chain of UniProt P07203 (P07203 whole entry, looked up): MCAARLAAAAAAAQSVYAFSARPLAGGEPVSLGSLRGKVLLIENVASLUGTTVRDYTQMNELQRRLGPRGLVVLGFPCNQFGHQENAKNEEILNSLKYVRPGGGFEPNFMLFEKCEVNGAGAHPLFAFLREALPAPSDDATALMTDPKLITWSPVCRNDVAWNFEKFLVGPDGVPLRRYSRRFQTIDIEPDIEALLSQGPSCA
# Procedure, shortened: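 Recombinant GPX1 (10 nM final) was preincubated with compound for 30 min at room temperature, then reacted with 1 mM GSH, 0.5 mM CHP, 0.5 mM NADPH and 100 nM glutathione reductase; NADPH fluorescence (340/450 nm) was read at 0 and 15 min.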
# Tags describe the fitted curve by direction and shape.
smiles,measurement,setting,value
Cc1ccccc1Sc1ccc(/C=C2\SC(=S)NC2=O)cc1[N+](=O)[O-],Potency,[1],"inconclusive: 29.1 µM [inhibitor, single point]"
same,Potency,[2],"inconclusive: 16.4 µM [inhibitor, single point]"
same,Potency,[3],"inconclusive: 23.1 µM [inhibitor, single point]"
CCn1c(-c2nonc2N)nc2cncc(C(=O)N3CC[C@H](N)C3)c21,Potency,[1],"inconclusive: 29.1 µM [inhibitor, single point]"
same,Potency,[3],"inconclusive: 3.66 µM [inhibitor, full curve]"
O=C(NCCc1c[nH]c2ccc(O)cc12)c1ccc2ccccc2c1O,Potency,[1],"inconclusive: 20.6 µM [inhibitor, partial curve]"
same,Potency,[2],"inconclusive: 2.91 µM [inhibitor, full curve]"
same,Potency,[3],"inconclusive: 2.59 µM [inhibitor, full curve]"
C/C(=C/CCC(CO)C1CCC2(C)C3CCC4C(C)(C)C(OC5OC(CO)C(O)C(O)C5O)CC(O)C45CC35CCC12C)COC1OC(CO)C(O)C(O)C1O (stereo not given),Potency,[1],inactive
same,Potency,[3],inactive
same,Potency,[4],"inconclusive: 1.78 µM [activator, partial curve, poor fit]"
CCC(C)C(=O)O[C@H]1[C@@H](O[C@H]2O[C@H](CO)[C@@H](O)[C@H](O)[C@H]2O)O[C@H](CO)[C@@H](O)[C@@H]1O (stereo not given in full),Potency,[1],inactive
same,Potency,[3],"inconclusive: 5.63 µM [inhibitor, partial curve, poor fit]"
CC(=O)[C@H]1CCC2C3CCC4=CC(=O)CC[C@]4(C)C3[C@H](O)C[C@@]21C (stereo not given in full),Potency,[1],"inconclusive: 29.1 µM [inhibitor, single point]"
same,Potency,[2],inactive
Cc1cc(N2CCOCC2)cc2[nH]c(-c3c(NCC(O)c4cccc(Cl)c4)cc[nH]c3=O)nc12 (stereo not given),Potency,[1],active: 5.8 µM
same,Potency,[2],active: 1.64 µM
same,Potency,[3],active: 1.46 µM
CC1=CC(=O)C2C(C)(C)CCC[C@]2(C)[C@H]1CO (stereo not given in full),Potency,[1],inactive
same,"activity change, negative = viability loss",[2],inconclusive: -33% [inhibitor]
same,Potency,[3],"inconclusive: 20.5 µM [inhibitor, partial curve, poor fit]"
O=C(/C=C/c1nc2ccccc2[nH]1)c1c(-c2ccccc2)c2cc(Cl)ccc2[nH]c1=O,Potency,[1],"inconclusive: 23.1 µM [inhibitor, single point]"
same,Potency,[2],active: 1.16 µM
same,Potency,[3],active: 1.03 µM
COC(=O)C(Cc1ccccc1)NC(=O)c1ccccc1 (stereo not given),Potency,[1],inactive
same,Potency,[2],inactive
same,Potency,[5],"inconclusive: 21.3 µM [inhibitor, single point]"
CC(C)(C)c1ccc(S(=O)(=O)Nc2ccc(-n3ccnc3)cc2)cc1,Potency,[1],"inconclusive: 10.3 µM [inhibitor, partial curve]"
same,Potency,[2],"inconclusive: 14.6 µM [inhibitor, partial curve]"
same,Potency,[3],"inconclusive: 20.6 µM [inhibitor, partial curve]"
CC(CCc1ccccn1)(CCc1ccccn1)C(=O)c1ccccc1,Potency,[1],inactive
same,Potency,[2],inactive
CNC(=O)c1c(C)oc2cc(Oc3ncnc4cc(OC)c(OC)cc34)ccc12,Potency,[1],"inconclusive: 29.1 µM [inhibitor, single point]"
same,Potency,[2],"inconclusive: 16.4 µM [inhibitor, partial curve]"
same,Potency,[3],inactive
Fc1ccc(-c2nc3n(c2-c2ccncc2)CCS3)cc1,Potency,[6],active: 0.519 µM
same,Potency,[1],"inconclusive: 29.1 µM [inhibitor, single point]"
same,Potency,[2],"inconclusive: 20.6 µM [inhibitor, single point]"
same,Potency,[3],"inconclusive: 20.6 µM [inhibitor, single point]"
same,Potency,[7],inactive
